The entries are a selection whose mix differs from that of the whole data set. For some of these results: At the low end of the ranking the order means little. The list shows a part of the results. For some of these results: The source does not settle which construct or isoform was used.
Columns and labels:
Test in all cases: universal protein binding microarray (PBM)
Conditions in all cases: transcription factors of Arabidopsis thaliana; high values mean tight binding; most listed sequences are background and not binding sites; double strand, one strand shown
GST-NTL6(1-168) = GST-NTL6(1-168) (UniProt Q9SCK6)
GST-ATAF1 NAC domain = molecular target: T1, GST-ATAF1 NAC domain (UniProt Q39013)
T1 sequence: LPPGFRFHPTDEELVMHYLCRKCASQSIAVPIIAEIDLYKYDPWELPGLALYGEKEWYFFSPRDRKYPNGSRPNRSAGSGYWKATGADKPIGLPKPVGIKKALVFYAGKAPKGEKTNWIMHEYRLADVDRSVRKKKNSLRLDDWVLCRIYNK

[1] = molecular target: T2, GST-ANAC092(1-285) full length (UniProt Q9FKA0)
T2 sequence: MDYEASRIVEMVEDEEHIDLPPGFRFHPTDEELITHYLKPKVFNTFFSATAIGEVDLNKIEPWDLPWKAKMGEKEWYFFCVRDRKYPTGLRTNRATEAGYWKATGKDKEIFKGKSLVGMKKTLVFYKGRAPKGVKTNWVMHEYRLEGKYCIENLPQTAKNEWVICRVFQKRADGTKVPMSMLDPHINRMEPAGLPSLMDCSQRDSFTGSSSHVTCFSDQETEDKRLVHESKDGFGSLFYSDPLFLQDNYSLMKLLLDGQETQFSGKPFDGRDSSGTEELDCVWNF

GST-NTL8 NAC domain = molecular target: T3, GST-NTL8 NAC domain (UniProt Q9XIN7)
T3 sequence: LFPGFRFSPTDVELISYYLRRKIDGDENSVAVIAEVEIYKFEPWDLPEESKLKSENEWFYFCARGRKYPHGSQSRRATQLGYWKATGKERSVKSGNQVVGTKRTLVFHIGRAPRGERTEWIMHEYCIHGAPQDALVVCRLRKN

GST-VND3 NAC domain = molecular target: T4, GST-VND3 NAC domain (UniProt Q9FH59)
T4 sequence: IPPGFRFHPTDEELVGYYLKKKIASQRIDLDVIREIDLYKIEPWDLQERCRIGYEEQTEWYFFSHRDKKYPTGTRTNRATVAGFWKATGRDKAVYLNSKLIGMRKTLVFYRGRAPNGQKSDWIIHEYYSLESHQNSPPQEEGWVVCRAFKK

GST-VND7 NAC domain = molecular target: T5, GST-VND7 NAC domain (UniProt Q9C8W9)
T5 sequence: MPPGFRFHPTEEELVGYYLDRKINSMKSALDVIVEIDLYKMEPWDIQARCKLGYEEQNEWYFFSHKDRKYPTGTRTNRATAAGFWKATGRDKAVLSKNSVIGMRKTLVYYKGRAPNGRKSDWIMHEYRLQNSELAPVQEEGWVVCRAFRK

[2] = molecular target: T6, GST-VOZ2 (Arabidopsis thaliana) (UniProt Q9SLB9)
T6 sequence: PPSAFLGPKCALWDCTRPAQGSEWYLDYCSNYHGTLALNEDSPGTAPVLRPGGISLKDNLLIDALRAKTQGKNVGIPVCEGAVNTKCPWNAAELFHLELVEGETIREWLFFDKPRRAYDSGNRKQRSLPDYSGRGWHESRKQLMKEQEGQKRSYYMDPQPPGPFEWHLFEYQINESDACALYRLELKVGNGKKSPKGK

GST-WRKY1(266-371) = GST-WRKY1(266-371) (UniProt Q9SI37)
GST-ANAC092(1-176) = molecular target: T7, GST-ANAC092(1-176) (UniProt Q9FKA0)
T7 sequence: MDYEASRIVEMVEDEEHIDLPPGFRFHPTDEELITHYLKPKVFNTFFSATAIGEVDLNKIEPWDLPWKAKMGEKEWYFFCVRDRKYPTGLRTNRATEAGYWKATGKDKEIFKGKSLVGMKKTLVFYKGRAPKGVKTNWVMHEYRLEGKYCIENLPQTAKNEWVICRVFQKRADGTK

GST-ANAC019 NAC domain = molecular target: T8, GST-ANAC019 NAC domain (UniProt Q9C932)
T8 sequence: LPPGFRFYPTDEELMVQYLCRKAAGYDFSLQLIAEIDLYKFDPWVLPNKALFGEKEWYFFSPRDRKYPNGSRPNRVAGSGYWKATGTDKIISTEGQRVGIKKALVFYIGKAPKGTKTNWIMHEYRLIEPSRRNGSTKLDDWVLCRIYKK

GST-ANAC055(1-171) = molecular target: T9, GST-ANAC055(1-171) (UniProt Q9LDY8)
T9 sequence: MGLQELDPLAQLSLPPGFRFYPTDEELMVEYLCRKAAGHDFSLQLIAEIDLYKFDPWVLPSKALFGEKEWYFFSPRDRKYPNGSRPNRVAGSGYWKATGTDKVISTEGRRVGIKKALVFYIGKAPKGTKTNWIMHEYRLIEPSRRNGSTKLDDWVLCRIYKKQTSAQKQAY

GST-NAP(1-166) = molecular target: T10, GST-NAP(1-166) (UniProt O49255)
T10 sequence: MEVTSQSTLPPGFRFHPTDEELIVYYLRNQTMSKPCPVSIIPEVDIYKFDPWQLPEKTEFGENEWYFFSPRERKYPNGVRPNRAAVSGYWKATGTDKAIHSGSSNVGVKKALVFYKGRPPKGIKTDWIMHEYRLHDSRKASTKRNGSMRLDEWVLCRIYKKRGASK

GST-NST2(1-184) = molecular target: T11, GST-NST2(1-184) (UniProt Q9M274)
T11 sequence: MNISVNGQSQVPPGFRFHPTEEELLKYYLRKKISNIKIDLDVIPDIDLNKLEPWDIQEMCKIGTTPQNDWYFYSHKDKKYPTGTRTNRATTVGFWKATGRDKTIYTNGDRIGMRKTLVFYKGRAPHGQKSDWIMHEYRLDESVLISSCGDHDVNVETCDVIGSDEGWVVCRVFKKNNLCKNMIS

Sequence	binding signal (GST-NTL6(1-168))	binding signal (GST-ATAF1 NAC domain)	binding signal [1]	binding signal (GST-NTL8 NAC domain)	binding signal (GST-VND3 NAC domain)	binding signal (GST-VND7 NAC domain)	binding signal [2]	binding signal (GST-WRKY1(266-371))	binding signal (GST-ANAC092(1-176))	binding signal (GST-ANAC019 NAC domain)	binding signal (GST-ANAC055(1-171))	binding signal (GST-NAP(1-166))	binding signal (GST-NST2(1-184))
TATACGCA	-0.0516 E-score	0.231 E-score	0.4 E-score	-0.0133 E-score	0.29 E-score	0.102 E-score	0.106 E-score	-0.0718 E-score					
CTTAGTCA	0.243 E-score		-0.0175 E-score		-0.0106 E-score	0.0448 E-score	0.0254 E-score		0.0279 E-score	0.0435 E-score	-0.0331 E-score	0.036 E-score	-0.0349 E-score
AAGTCATC		0.0124 E-score		0.0978 E-score	0.0031 E-score	0.11 E-score	-0.0147 E-score		0.00323 E-score	-0.0606 E-score			
TGACTCAA			0.131 E-score	0.0257 E-score	0.113 E-score	0.0043 E-score	0.148 E-score		-0.0286 E-score	-0.0708 E-score	0.0297 E-score	-0.104 E-score	0.05 E-score
GGGGTCAA	0.0383 E-score	-0.123 E-score			-0.103 E-score	0.012 E-score	0.083 E-score		0.0162 E-score		-0.137 E-score	-0.108 E-score	-0.0308 E-score
CTTGACCC	-0.137 E-score	-0.176 E-score	-0.01 E-score	0.0908 E-score	-0.145 E-score	-0.0117 E-score	-0.0232 E-score		-0.0425 E-score	0.00348 E-score	-0.245 E-score	-0.053 E-score	-0.0426 E-score
ACCGTCAA	-0.0269 E-score	0.0205 E-score		0.039 E-score	0.126 E-score	0.019 E-score	0.0271 E-score		0.006 E-score		0.0155 E-score		0.0111 E-score
TAGGGAAA					0.0218 E-score	0.0188 E-score	0.0602 E-score	-0.0394 E-score			0.0468 E-score	-0.0299 E-score	0.00907 E-score
CTGTTGAC	0.0402 E-score	-0.0408 E-score		-0.0969 E-score	0.0152 E-score	-0.051 E-score	0.0598 E-score		0.105 E-score		-0.0491 E-score	0.0104 E-score	0.0185 E-score
AAGGAATG			0.115 E-score	0.293 E-score	0.0415 E-score	0.0905 E-score	0.0383 E-score	0.0844 E-score				0.0456 E-score	0.196 E-score
GTCAATTA	0.0219 E-score			0.0378 E-score	0.104 E-score	0.0371 E-score	0.2 E-score		0.00685 E-score	0.0034 E-score	0.0852 E-score	-0.0195 E-score	
GCGTCAAC	0.00591 E-score	0.00133 E-score	0.109 E-score	-0.0485 E-score	-0.0407 E-score	0.0159 E-score	0.0826 E-score			0.0778 E-score	0.0308 E-score	0.028 E-score	
GTCAAGTA	0.0257 E-score		0.186 E-score	-0.0531 E-score	0.137 E-score	0.0236 E-score	0.0293 E-score		0.0311 E-score	0.0392 E-score		0.0229 E-score	0.00519 E-score
CACGCGAA		-0.0348 E-score			-0.0654 E-score	0.0268 E-score	0.122 E-score	-0.0622 E-score		-0.000305 E-score		-0.0358 E-score	
GTCAGTCA	-0.0534 E-score	-0.0709 E-score		-0.00441 E-score	-0.0527 E-score	0.0101 E-score	-0.138 E-score		-0.032 E-score	-0.0106 E-score	-0.104 E-score	0.0353 E-score	-0.00585 E-score
GGCGTCAA	-0.0136 E-score	-0.083 E-score	-0.00502 E-score	-0.0481 E-score	-0.0887 E-score	-0.068 E-score	-0.00275 E-score		0.0474 E-score	-0.113 E-score	-0.144 E-score	-0.178 E-score	-0.0763 E-score
CGTAGACC	-0.115 E-score	-0.00481 E-score	0.000565 E-score	-0.145 E-score	0.0411 E-score	-0.128 E-score	-0.182 E-score		-0.0984 E-score	-0.111 E-score	0.011 E-score	-0.0515 E-score	-0.0507 E-score
CTTACGCA	0.0871 E-score	0.187 E-score	0.389 E-score	0.111 E-score	0.255 E-score	0.295 E-score	0.138 E-score	-0.0122 E-score					0.278 E-score
TCAAGTCA	-0.000985 E-score			-0.0264 E-score	0.007 E-score	-0.0449 E-score	0.0151 E-score		-0.000595 E-score	0.0464 E-score	0.0629 E-score	0.00962 E-score	
GTCAAGCA	-0.107 E-score	-0.0328 E-score	0.106 E-score	0.0377 E-score	-0.0137 E-score	-0.042 E-score	-0.0563 E-score		0.0227 E-score	0.0105 E-score	-0.0826 E-score	-0.187 E-score	0.0342 E-score
ACGCCACC	-0.0332 E-score			-0.179 E-score	-0.0279 E-score	-0.0263 E-score	0.244 E-score	-0.128 E-score			0.0815 E-score		
CTTAAGGA	0.401 E-score	-0.0455 E-score	-0.00475 E-score	0.179 E-score	0.0373 E-score	-0.0527 E-score	0.00821 E-score		0.0455 E-score	-0.0726 E-score	-0.0364 E-score	-0.206 E-score	0.0872 E-score
CACGCTAG	-0.0434 E-score	0.0278 E-score		-0.0495 E-score	0.0403 E-score	-0.0264 E-score	-0.0284 E-score	-0.00864 E-score					
GAGTTGAC	0.0243 E-score	0.0457 E-score	-0.0154 E-score	-0.159 E-score	0.0477 E-score	4e-05 E-score	-0.0732 E-score		-0.0146 E-score	0.0811 E-score	0.0004 E-score	-0.0315 E-score	
CGTTGACA	-0.0334 E-score	0.0029 E-score	-0.0367 E-score	-0.0447 E-score	-0.0171 E-score	-0.0931 E-score	-0.0256 E-score		-0.0568 E-score	-0.0609 E-score	-0.114 E-score	0.0164 E-score	-0.0514 E-score
GTCAACAA		0.191 E-score		0.0573 E-score	0.0416 E-score	0.07 E-score	0.0956 E-score		0.0173 E-score	-0.0462 E-score			

From PMC4081100
